Source: publication PMC4336329 (PLoS ONE, 2015)
About 2,200 (0.71%) of roughly 310,000 compounds showed an effect of 50% or more. Effects have a minus sign here. The list shows a part of the results.

Target: human ether-à-go-go-related gene (hERG) potassium channel (human, UniProt Q12809)
Assay: primary screen, population patch clamp on CHO cells stably expressing hERG

Chain of human ether-à-go-go-related gene (hERG) potassium channel (Q12809 whole entry, looked up): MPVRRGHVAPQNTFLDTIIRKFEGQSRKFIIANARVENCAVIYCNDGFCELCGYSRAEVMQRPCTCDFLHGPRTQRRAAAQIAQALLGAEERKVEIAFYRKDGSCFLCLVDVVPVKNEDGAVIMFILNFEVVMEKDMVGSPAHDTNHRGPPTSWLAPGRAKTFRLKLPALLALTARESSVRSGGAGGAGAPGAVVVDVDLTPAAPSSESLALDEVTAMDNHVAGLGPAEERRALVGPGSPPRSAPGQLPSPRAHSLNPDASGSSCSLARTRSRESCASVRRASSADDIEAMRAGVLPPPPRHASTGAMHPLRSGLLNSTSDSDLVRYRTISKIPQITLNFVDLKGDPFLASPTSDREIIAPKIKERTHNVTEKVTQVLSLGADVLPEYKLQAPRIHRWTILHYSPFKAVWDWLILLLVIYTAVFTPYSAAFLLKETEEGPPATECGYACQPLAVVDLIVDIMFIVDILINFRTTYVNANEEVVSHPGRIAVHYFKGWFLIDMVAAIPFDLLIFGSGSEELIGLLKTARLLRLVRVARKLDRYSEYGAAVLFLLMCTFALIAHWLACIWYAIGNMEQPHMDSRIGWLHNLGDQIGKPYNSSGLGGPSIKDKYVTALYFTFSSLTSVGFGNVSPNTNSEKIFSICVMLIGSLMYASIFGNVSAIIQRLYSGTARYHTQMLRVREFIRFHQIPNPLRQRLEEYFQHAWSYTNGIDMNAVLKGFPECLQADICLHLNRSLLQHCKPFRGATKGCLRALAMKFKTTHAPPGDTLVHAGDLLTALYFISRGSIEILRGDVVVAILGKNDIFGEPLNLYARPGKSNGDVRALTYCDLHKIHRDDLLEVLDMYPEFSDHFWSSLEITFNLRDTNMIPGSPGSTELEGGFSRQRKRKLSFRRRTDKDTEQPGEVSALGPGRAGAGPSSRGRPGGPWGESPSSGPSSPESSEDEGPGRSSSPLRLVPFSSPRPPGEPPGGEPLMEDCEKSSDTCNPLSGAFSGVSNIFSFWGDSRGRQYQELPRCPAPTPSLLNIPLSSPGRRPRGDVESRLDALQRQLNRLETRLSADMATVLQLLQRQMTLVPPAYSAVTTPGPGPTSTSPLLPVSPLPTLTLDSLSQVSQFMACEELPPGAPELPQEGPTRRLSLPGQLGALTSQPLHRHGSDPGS

SMILES	hERG current change (%, negative = inhibition) at 1uM [%]
COCCNC(=O)CN(C(=O)CCC(=O)Nc1nccs1)c1ccc2c(c1)OCO2	12.7
O=C(COC(=O)C1CCN(S(=O)(=O)c2ccccc2)CC1)NCCc1ccccc1	7.83
Cc1ccc2[nH]c(=O)c(CN(C)C(=O)c3ccccn3)cc2c1	13
O=C(NN1CCOCC1)c1cc(Cl)ccc1Cl	12.9
Nc1nonc1C(=O)NCCNC(=O)c1cccs1	-4.76
COc1ccc(CCNC(=O)C2CCC(C(C)(C)C)CC2)cc1OC (centres unmarked)	13
CN1C(=O)C(O)(CC(=O)c2ccncc2)c2ccccc21 (centres unmarked)	7.69
C/C(=N/NC(=O)c1ccccc1)C1=C(O)CC(C)(C)CC1=O	14.4
N#CCCn1cc(C=C(C#N)C#N)c(-c2ccc(-c3ccccc3)cc2)n1	12
CCCN(CCC)CCCNC(=O)c1cn(CC)c2ccc(S(=O)(=O)N3CCOCC3)cc2c1=O	14.1
CCOc1ccccc1NC(=O)C1CCN(S(=O)(=O)c2c(C)nn(C)c2C)CC1	0.895
Cc1ccc(C(=O)NN2CC(O)=C(c3nc(-c4cccc([N+](=O)[O-])c4)cs3)C2=N)cc1	5.9
CC(Sc1nc(-c2ccc(F)cc2)cs1)C(=O)N1c2ccccc2CC1C (centres unmarked)	10.6
C=CCNC(=O)CN1CCC(n2nnc3cc(C(F)(F)F)ccc32)CC1	-0.772
O=C(CCc1ccccc1)Nc1ccc(F)cc1F	-15.5
CCCCNC(=O)CSc1nc2cc3c(cc2c(=O)n1CCC(=O)NCCc1ccc(OC)c(OC)c1)OCO3	11.3
Cc1oc2c(CN3CCCCC3)c(O)ccc2c(=O)c1-c1ccc(Br)cc1	10.8
CC(=O)Nc1ccc(NC(=O)CN(C)S(=O)(=O)c2ccc3ccccc3c2)cc1	10.2
CC(C)c1cc(C(=O)N2CCN(C(c3ccccc3)c3ccccc3)CC2)no1	-0.622
Cc1ccc(C)c(SCC(=O)NC(=O)Nc2ccc3c(c2)OCCO3)c1	6.19
Cc1cccc(CSc2nc3ccccc3c(=O)n2C)c1	2.06
CC1C(=O)Nc2ccc(S(=O)(=O)N3CCCCCC3)cc21 (centres unmarked)	11.5

SMILES	hERG current change (%, negative = inhibition) at 1uM [%]
CC(=O)c1cccc(NC(=O)c2sc3nc4n(c(=O)c3c2C)CCCCC4)c1	2.97
COc1ccc(-n2nnnc2SCC(=O)Nc2nnn(C)n2)cc1	-4.75
COCCNC(=O)CN(C(=O)CCC(=O)Nc1ccccn1)c1ccc(F)cc1	14.7
COc1ccccc1/C=C/C(=O)OCC(=O)Nc1c(C)nn(-c2ccccc2)c1C	14.2
O=C(c1ccc(S(=O)(=O)NCc2ccco2)cc1)N1CCCC1	9.99
O=C(c1ccccc1-n1cccc1)N1N=C(C(F)F)CC1(O)C(F)F (centres unmarked)	-10.9
COc1ccc(C(=O)Oc2ccc(Br)cc2C(=S)N2CCOCC2)cc1	6.83
Cc1cc(=O)oc2c(C)c(OC(=O)c3ccco3)ccc12	6.06
O=C(N/N=C/c1ccc(N2CCOCC2)cc1)C1COc2ccccc2O1 (centres unmarked)	3.08
COc1ccc(NC(=O)c2ccco2)c(NC(=O)Cc2cccs2)c1	10.7
CCCc1ccc(C(=O)NNc2ccccc2F)cc1	10.8
O=C(O)c1ccc2c3c(ncnc13)-c1ccccc1C2=O	-10.1
CCN(CC)S(=O)(=O)c1ccc(NC(=O)CN(c2cccc(F)c2)S(C)(=O)=O)cc1	16
Cc1cc(Cl)ccc1OC(C)C(=O)Nc1ccc(C(=O)Nc2ccccc2C(=O)O)cc1 (centres unmarked)	14.5
CCN(CC)c1ccc(NC(=O)c2cccc(C)c2)cc1S(=O)(=O)Nc1ccccc1OC	11.2
CC(C)[C@H](NS(=O)(=O)c1ccc2c(c1)OCCO2)C(=O)OCC(=O)Nc1cccc(Cl)c1Cl	0.0262
COC(=O)COc1ccc(S(=O)(=O)N2CCN(c3ccccc3)CC2)cc1	16.6
O=C(O)c1ccccc1Sc1ccccc1S(=O)(=O)NC1CCCCC1	16.3
CC1(C)Cc2cccc(Oc3ccc(S(=O)(=O)N4CCCCC4)cn3)c2O1	5.66
COc1ccc(C(=O)C2CCCCC2=O)cc1 (centres unmarked)	10.9
COc1ccccc1N(C)S(=O)(=O)c1ccc(C(=O)O)cc1	9.34
Cc1cc(-c2ccc(C)c(S(=O)(=O)NCC3CCN(Cc4cccc(F)c4)CC3)c2)on1	3.78

SMILES	hERG current change (%, negative = inhibition) at 1uM [%]
COc1ccccc1CNC(=O)COC(=O)c1cccc(S(=O)(=O)N2CCOCC2)c1	-18
COc1ccc(/C(C)=N/NC(=O)c2nnn(-c3nonc3N)c2-c2cccs2)cc1OC	7.9
O=C(O)C(Oc1ccc2c3c(c(=O)oc2c1)CCC3)c1ccccc1 (centres unmarked)	-4.33
Cc1cc(C(=O)NNC(=O)c2c(-c3c(Cl)cccc3Cl)noc2C)no1	10.1
Cc1ccccc1CN1CCN(c2ccc(S(=O)(=O)N3CCCC3)cn2)CC1	7.73
CCN(CC)S(=O)(=O)c1ccc(N2CC(C(=O)NCc3ccc4c(c3)OCO4)CC2=O)cc1 (centres unmarked)	8.58
COc1ccc(C(CNC(=O)COc2ccc(Br)cc2F)N2CCCC2)cc1 (centres unmarked)	-17.1
CCc1sc(C(=O)NCc2ccco2)cc1Br	2.94
O=C(c1cccs1)N(Cc1nc2sc3c(c2c(=O)[nH]1)CCCC3)C1CCCC1	7.7
CCCCC1C2C(=O)N(c3ccc(C)cc3)C(=O)C2ON1c1ccccc1 (centres unmarked)	8.84
COc1cccc(-c2cc(=O)c3cc(NC(=O)c4ccc(N(C)C)cc4)ccc3[nH]2)c1	8.36
O=C(NC(CCl)c1ccccc1)c1ccc(Cl)cc1 (centres unmarked)	10
O=C(Nc1ccc(S(=O)(=O)NC2=NCCCCC2)cc1)c1ccc(=O)[nH]c1	14.2
CCOC(=O)c1sc(Nc2ccc(Br)cc2)nc1C	13
CN(CCCNC(=O)c1cc2c(=O)[nH]c3ccccc3c2n1C)Cc1ccccc1	-3.23
Clc1ccc(CN(Cc2ccc(Cl)cc2)c2nn[nH]n2)cc1	3.38
CC(C)(C)c1nnc2sc(SCC(=O)N3CCCc4ccccc43)nn2c1=O	-2.46
CCOc1ccc(N2CC(C(=O)NCc3ccc4c(c3)OCO4)CC2=O)cc1 (centres unmarked)	4.68
Cc1ccc(OCCC(=O)Nc2ccc(S(=O)(=O)N3CCCC3)cc2)cc1	4.2
COC(=O)c1[nH]c2cc(C)ccc2c1NC(=O)CN1CCOCC1	7.32
CC(C)Cc1nnc(NC(=O)c2ccc3c(c2)OCCO3)s1	5.47
COc1ccc(OCCC(=O)Nc2cc(C)on2)cc1	14.2

SMILES	hERG current change (%, negative = inhibition) at 1uM [%]
Cc1c(C(=O)N2CCOCC2)c(S(=O)(=O)Nc2ccc(C(C)C)cc2)c(C)n1C	11.7
Cc1ccc(-c2nc3ncccc3o2)cc1NC(=O)c1sc2ccccc2c1Cl	1.15
COc1ccc(C(=O)CC(Nc2ccc([N+](=O)[O-])cc2)c2ccc(OC)cc2)cc1 (centres unmarked)	2.46
C=CCOc1ccccc1/C=N/O	-0.514
CCc1oc2ccccc2c1C(=O)c1cc(Br)c(O)c(Br)c1	5.26
O=C1C=C(c2cccc(Cl)c2)C[C@@H](c2ccc(F)cc2)C1	17.2
COc1cccc(C(O)Cc2nc3ccccc3n2C)c1OC (centres unmarked)	13.8
COc1ccc2c(Cl)c(C(=O)N/N=C/c3ccncc3)sc2c1	19.5
Cc1ccc(NC(=O)c2ccc(Br)o2)cc1S(=O)(=O)N(C)C	-7.85
CCOC(=O)C1(CCc2ccccc2)CCN(C(=O)CCn2cnnn2)CC1	-0.0487
Cc1ccc(NC(=O)CCCn2nc(C)c3c(C)n(-c4ccccc4)nc3c2=O)cc1C	11.8
CCOC(=O)C1CCCN(Cc2ccc(OC)c(OCc3ccccc3)c2)C1 (centres unmarked)	-10.5
CCc1cc(C(=O)N2CCCC(N3CCN(c4cccc(C(F)(F)F)c4)CC3)C2)n(C)n1 (centres unmarked)	-6.89
O=C(COc1ccc2c3c(c(=O)oc2c1)CCCC3)N1C[C@H]2C[C@@H](C1)c1cccc(=O)n1C2	-6
O=C(Cn1c(-c2ccccc2)c[n+]2ccsc12)c1ccc(Br)cc1.[Br-]	-0.698
O=C(COC(=O)CNC(=O)c1ccc(F)cc1)Nc1cccc(S(=O)(=O)N2CCCC2)c1	10.2
CCOC(=O)CSc1nnc(-c2cccc(Cl)c2)n1CC	7.11
CCOc1ccc2oc(=O)cc(CN3CCN(C(=O)c4ccco4)CC3)c2c1	-46.5
S=C(Nc1ccc2cn[nH]c2c1)Nc1ccccc1Cl	3.81
CCOC(=O)c1ccc2[nH]c(C)c(C)c2c1	-1.31
